Some of the results follow. Most values come without repeats; read them as rough.
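Note: cells treated in 1,536-well plates, then fixed and DAPI-stained, with nuclei counted from automated high-throughput microscope images.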

The assay relates to A375. As to the kind of experiment: cell count relative to DMSO control; melanoma cells; higher = more viable cells. Conditions: library dose: standard library concentration; 72 h.
As to `Nc1nc(F)nc2c1ncn2[C@@H]1O[C@H](CO)[C@@H](O)[C@@H]1O` [fludarabine] + CN(C)S(=O)(=O)c1ccc2c(c1)/C(=C/c1cc3c([nH]1)CCCC3)C(=O)N2 [SU6656] (first compound 1 µM, partner dose 2 µM), the cell count stood at 39.3%.
With `CC(=O)c1c(C)c2cnc(Nc3ccc(N4CCNCC4)cn3)nc2n(C2CCCC2)c1=O` [palbociclib] + C#Cc1cccc(Nc2ncnc3cc(OCCOC)c(OCCOC)cc23)c1 [erlotinib] (first compound 0.2 µM, partner dose 4 µM) the figure was 55.2%.
Take `Nc1ncn([C@H]2C[C@H](O)[C@@H](CO)O2)c(=O)n1` [decitabine] + C=CCn1c(=O)c2cnc(Nc3ccc(N4CCN(C)CC4)cc3)nc2n1-c1cccc(C(C)(C)O)n1 [MK1775] (first compound 0.5 µM, partner dose 0.1 µM): the cell count came to 51.7%.
With `CC(=O)O[C@@]12CO[C@@H]1C[C@H](O)[C@@]1(C)C(=O)[C@H](O)C3=C(C)[C@@H](OC(=O)[C@H](O)[C@@H](NC(=O)OC(C)(C)C)c4ccccc4)C[C@@](O)([C@@H](OC(=O)c4ccccc4)[C@H]21)C3(C)C` [Docetaxel] + COc1cc2ncnc(Nc3ccc(Oc4ccccc4)cc3)c2cc1OC [SrcI1] (first compound 0.0005 µM, partner dose 10 µM) the figure was 104%; with `CO[C@H]1C[C@@H]2CC[C@@H](C)[C@@](O)(O2)C(=O)C(=O)N2CCCC[C@H]2C(=O)O[C@H]([C@H](C)C[C@@H]2CC[C@@H](OCCO)[C@H](OC)C2)CC(=O)[C@H](C)/C=C(\C)[C@@H](O)[C@@H](OC)C(=O)[C@H](C)C[C@H](C)/C=C/C=C/C=C/1C` [everolimus] + O=C(O)c1ccc(-c2c[nH]c3ncc(-c4ccccc4)cc23)cc1C1CCCC1 [GSK650394] (first compound 0.1 µM, partner dose 0.8 µM), 104%.

The record behind these values is the supplement of paper PMC4604168 (melanoma cell lines).
